Results published in paper PMC4598844.
These are yes or no findings as the source states them, for the method shown. In cells and extracts the contact can be indirect. Some results given as binding are weak or reduced against the parent protein; the word gives no strength. Tags and fused reporters may be left off the sequences shown.

Protein sequences, listed by entry. Tags and fused reporters are not part of them.
UniProt Q13887: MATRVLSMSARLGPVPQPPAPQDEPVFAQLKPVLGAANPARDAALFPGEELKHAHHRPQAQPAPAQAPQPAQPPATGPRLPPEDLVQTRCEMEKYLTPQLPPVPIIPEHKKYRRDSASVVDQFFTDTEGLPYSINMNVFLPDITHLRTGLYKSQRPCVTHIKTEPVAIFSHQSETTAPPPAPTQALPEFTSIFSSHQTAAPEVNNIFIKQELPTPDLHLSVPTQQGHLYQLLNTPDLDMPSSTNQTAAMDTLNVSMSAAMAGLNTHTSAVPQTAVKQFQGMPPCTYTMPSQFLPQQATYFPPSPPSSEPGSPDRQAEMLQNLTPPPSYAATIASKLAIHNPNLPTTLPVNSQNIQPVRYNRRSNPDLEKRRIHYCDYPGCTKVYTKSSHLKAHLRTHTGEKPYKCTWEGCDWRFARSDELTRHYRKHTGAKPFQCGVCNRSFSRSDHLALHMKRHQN
UniProt Q92560: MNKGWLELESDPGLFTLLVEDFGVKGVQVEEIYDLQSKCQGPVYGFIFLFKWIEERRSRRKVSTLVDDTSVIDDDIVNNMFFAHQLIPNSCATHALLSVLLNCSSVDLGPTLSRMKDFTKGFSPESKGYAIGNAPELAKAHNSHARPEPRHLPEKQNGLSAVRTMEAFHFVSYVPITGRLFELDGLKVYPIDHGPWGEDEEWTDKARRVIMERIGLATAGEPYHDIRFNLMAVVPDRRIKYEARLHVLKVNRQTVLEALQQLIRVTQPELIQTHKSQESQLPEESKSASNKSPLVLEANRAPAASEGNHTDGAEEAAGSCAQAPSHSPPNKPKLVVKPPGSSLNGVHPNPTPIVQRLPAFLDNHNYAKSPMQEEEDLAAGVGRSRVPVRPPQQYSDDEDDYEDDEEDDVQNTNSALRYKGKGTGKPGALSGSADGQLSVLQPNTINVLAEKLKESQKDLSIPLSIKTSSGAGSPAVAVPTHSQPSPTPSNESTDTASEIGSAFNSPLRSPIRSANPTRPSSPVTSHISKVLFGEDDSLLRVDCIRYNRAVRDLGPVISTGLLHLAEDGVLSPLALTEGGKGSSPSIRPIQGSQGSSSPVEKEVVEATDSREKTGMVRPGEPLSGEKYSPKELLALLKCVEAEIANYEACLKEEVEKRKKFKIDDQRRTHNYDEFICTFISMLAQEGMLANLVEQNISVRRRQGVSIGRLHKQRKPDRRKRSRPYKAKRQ

What was measured:
[1] = biological target: KLF5-3 × Flag, full-length KLF5 (1–457) (human) (UniProt Q13887); test: co-IP; KLF5-3 × Flag and BAP1 co-transfected into HEK293FT cells; KLF5 immunoprecipitated with anti-Flag (Flag-M2 beads); partners detected by WB
[2] = biological target: endogenous BAP1 (human (endogenous in MCF10A and HCC1806)) (UniProt Q92560); test: co-IP; endogenous proteins; HCC1806 cell lysates immunoprecipitated with the anti-BAP1 antibody, IgG as negative control; partners detected by WB

B1: O-linked N-acetylglucosaminetransferase (OGT), endogenous (enzyme, UniProt O15294 1-1046)
chain: MASSVGNVADSTEPTKRMLSFQGLAELAHREYQAGDFEAAERHCMQLWRQEPDNTGVLLLLSSIHFQCRRLDRSAHFSTLAIKQNPLLAEAYSNLGNVYKERGQLQEAIEHYRHALRLKPDFIDGYINLAAALVAAGDMEGAVQAYVSALQYNPDLYCVRSDLGNLLKALGRLEEAKACYLKAIETQPNFAVAWSNLGCVFNAQGEIWLAIHHFEKAVTLDPNFLDAYINLGNVLKEARIFDRAVAAYLRALSLSPNHAVVHGNLACVYYEQGLIDLAIDTYRRAIELQPHFPDAYCNLANALKEKGSVAEAEDCYNTALRLCPTHADSLNNLANIKREQGNIEEAVRLYRKALEVFPEFAAAHSNLASVLQQQGKLQEALMHYKEAIRISPTFADAYSNMGNTLKEMQDVQGALQCYTRAIQINPAFADAHSNLASIHKDSGNIPEAIASYRTALKLKPDFPDAYCNLAHCLQIVCDWTDYDERMKKLVSIVADQLEKNRLPSVHPHHSMLYPLSHGFRKAIAERHGNLCLDKINVLHKPPYEHPKDLKLSDGRLRVGYVSSDFGNHPTSHLMQSIPGMHNPDKFEVFCYALSPDDGTNFRVKVMAEANHFIDLSQIPCNGKAADRIHQDGIHILVNMNGYTKGARNELFALRPAPIQAMWLGYPGTSGALFMDYIITDQETSPAEVAEQYSEKLAYMPHTFFIGDHANMFPHLKKKAVIDFKSNGHIYDNRIVLNGIDLKAFLDSLPDVKIVKMKCPDGGDNADSSNTALNMPVIPMNTIAEAVIEMINRGQIQITINGFSISNGLATTQINNKAATGEEVPRTIIVTTRSQYGLPEDAIVYCNFNQLYKIDPSTLQMWANILKRVPNSVLWLLRFPAVGEPNIQQYAQNMGLPQNRIIFSPVAPKEEHVRRGQLADVCLDTPLCNGHTTGMDVLWAGTPMVTMPGETLASRVAASQLTCLGCLELIAKNRQEYEDIAVKLGTDLEYLKKVRGKVWKQRISSPLFNTKQYTMELERLYLQMWEHYAAGNKPDHMIKPVEVTESA
B1 was tested, and the binding [1] was “binds” and the binding [2] was “binds”.
